This is an account of results in paper PMC6688997 (Nature Communications, 2019).

Test [1] deals with T1, phospho-ROS1 in Ba/F3-CD74-ROS1-G2032R xenograft tumors (Homo sapiens, UniProt P04233+P08922, G2032R).
T1 construct: CD74 (N-terminal fusion partner, human CD74 P04233); expressed in transfected cells; host or cells: Ba/F3 (murine pro-B cells), retroviral infection
In words: Immunoblot of xenograft tumors. Type of test: in vivo, mouse. The conditions noted are these: repeated daily oral dosing. In general terms: A western blot detects proteins with antibodies after separation by electrophoresis.

Test [2] concerns MGH193-1B patient-derived cells. As to the kind of experiment: CellTiter-Glo cell viability assay. The conditions noted are these: 72–120 h. In general terms: ATP-based viability assays read luminescence as a measure of living cells.

T1 sequence (P08922 1883-2347 G2032R limits assumed, one chain of several): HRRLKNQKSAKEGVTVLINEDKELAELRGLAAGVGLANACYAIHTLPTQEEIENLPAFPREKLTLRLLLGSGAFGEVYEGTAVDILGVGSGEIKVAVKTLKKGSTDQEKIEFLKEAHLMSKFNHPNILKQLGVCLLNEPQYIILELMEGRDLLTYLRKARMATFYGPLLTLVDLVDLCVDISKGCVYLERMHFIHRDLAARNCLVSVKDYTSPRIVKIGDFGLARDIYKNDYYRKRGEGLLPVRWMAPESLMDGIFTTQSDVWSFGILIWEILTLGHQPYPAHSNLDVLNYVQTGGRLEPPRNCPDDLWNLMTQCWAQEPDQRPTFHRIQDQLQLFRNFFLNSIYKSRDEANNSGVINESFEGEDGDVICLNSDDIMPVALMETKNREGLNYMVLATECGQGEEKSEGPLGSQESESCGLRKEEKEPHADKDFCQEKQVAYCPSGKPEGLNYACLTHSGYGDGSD

`C[C@@H](N)COc1ccc(-c2cnc3ccc(N[C@H](C)c4cccc(F)c4)nn23)cc1.O=C(O)CCCCC(=O)O` [DS-6051b]: the “Inhibition of phospho-ROS1 in tumors” value in test [1] is recorded as “almost completely inhibited”.
Regarding `C[C@@H](Oc1cc(-c2cnn(C3CCNCC3)c2)cnc1N)c1c(Cl)ccc(F)c1Cl` [crizotinib, reference compound], the “Sensitivity (cell viability)” value in test [2] was “sensitive”.
